In patent US20210170043A1, “DC-SIGN ANTIBODY CONJUGATES COMPRISING STING AGONISTS” (NOVARTIS AG, priority 2018, published 2021):
Blank lines part the entries; values can stand above or below the molecule they belong to.

Target: T1, human L-SIGN (Homo sapiens, UniProt Q9H2X3)
T1 construct: expressed in transfected cells; host or cells: K562, retroviral transduction
T1 sequence (Q9H2X3 1-399): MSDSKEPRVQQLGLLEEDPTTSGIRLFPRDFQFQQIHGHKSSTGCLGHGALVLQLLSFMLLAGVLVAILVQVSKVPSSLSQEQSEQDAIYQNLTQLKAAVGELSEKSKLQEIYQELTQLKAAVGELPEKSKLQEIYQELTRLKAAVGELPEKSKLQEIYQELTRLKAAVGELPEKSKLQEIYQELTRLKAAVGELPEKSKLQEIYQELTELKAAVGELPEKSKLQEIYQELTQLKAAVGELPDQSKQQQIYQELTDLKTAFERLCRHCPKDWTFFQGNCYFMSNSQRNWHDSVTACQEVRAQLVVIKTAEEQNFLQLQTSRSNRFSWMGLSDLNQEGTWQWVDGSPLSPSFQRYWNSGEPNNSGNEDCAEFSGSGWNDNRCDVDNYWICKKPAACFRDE
Experiment: FACS binding to K562 cells expressing human L-SIGN (selectivity)
Settings: FACS MFI
Method: The affinity of various antibodies and ADCs to DC-SIGN and its species orthologues was determined using FACS. Purified IgGs were titrated to determine EC50 values for binding to cell surface expressed DC-SIGN.
For this purpose, human DC-SIGN expressing or cynomolgus monkey DC-SIGN expressing stable CHO cell lines or K562 expressing DC-SIGN or K562 expressing L-SIGN cell lines were checked for density and viability using VICELL (Beckman Coulter), and washed once with 4° C. PBS. Cells were stained with DAPI (0.5 ug/mL) diluted in PBS for 30 min on ice. Cells were diluted into 4° C. FACS buffer (PBS, 10 mM EDTA, 2% FBS). 125 μl of cells were seeded (10,000 cells/well) into 96-well v-bottom plates (Nunc cat#442587) and centrifuged for 4 min at 1500 rpm at 4° C. Supernatant was removed. […] After the final wash, cells were resuspended in Fixative Buffer (Biolegend, 420801) and 90 μl of FACS buffer followed by readout on the flow cytometry machine (BD LSRFortessa Cell Analyzer; Cat #647177). Geometric Mean fluorescence intensity (MFI) of live, single cells was calculated in Flowjo 10.4.2 and exported into Graphpad Prism7 for EC50 determination.
Selectivity was assessed by measuring apparent binding affinities to isogenic cell pairs engineered to overexpress DC-SIGN as well as cell lines expressing DC-SIGN paralog L-SIGN.

human L-SIGN K562 EC50: >10 µg/mL
B1: 906C18: anti-DC-SIGN monoclonal antibody from hybridoma of Ablexis Alivamab mice (antibody)
heavy: EVQLVESGGGLVQPGGSLRLSCAASGFTFNNYWMNWVRQAPGKGLEWVANIRQDGSEKYYVDSVKGRFTISRDNAKNSLFLQMNSLRAEDTAVYYCARERAYCSTTSCPDYSNDYWGQGTLVTVSSASTKGPSVFPLAPSSKSTSGGTAALGCLVKDYFPCPVTVSWNSGALTSGVHTFPAVLQSSGLYSLSSVVTVPSSSLGTQTYICNVNHKPSNTKVDKRVEPKSCDKTHTCPPCPAPELLGGPSVFLFPPKPKDTLMISRTPEVTCVVVAVSHEDPEVKFNWYVDGVEVHNAKTKPREEQYNSTYRVVSVLTVLHQDWLNGKEYKCKVSNKALAAPIEKTISKAKGQPREPQVYTLPPSREEMTKNQVSLTCLVKGFYPCDIAVEWESNGQPENNYKTTPPVLDSDGSFFLYSKLTVDKSRWQQGNVFSCSVMHEALHNHYTQKSLSLSPGK
light: EIVMTQSPATLSVSPGERATLSCRASQTINNNLAWFQQKPGQTPRLLIYGASTGATGIPARFSGSGSGTEFTLTISSLQSEDFAVYYCQQYNNWPRGLTFGGGTKVEIKRTVAAPSVFIFPPSDEQLKSGTASVVCLLNNFYPREAKVQWKVDNALQSGNSQESVTEQDSKDSTYSLSSTLTLSKADYEKHKVYACEVTHQGLSSPVTKSFNRGEC

human L-SIGN K562 EC50: >10 µg/mL
B2: 550 E03 Parental: anti-DC-SIGN monoclonal antibody from hybridoma of Ablexis Alivamab mice (antibody)
heavy: QVTLRESGPALVKPTQTLTLTCTFSGFSLSTSGMSVSWIRQPPGKALEWLALIDWDDDKYYSTSLKTRLTISKDTSKNQVVLTMTNMDPVDTATYYCARMALRHAFDAWGQGTMVTVSSASTKGPSVFPLAPSSKSTSGGTAALGCLVKDYFPCPVTVSWNSGALTSGVHTFPAVLQSSGLYSLSSVVTVPSSSLGTQTYICNVNHKPSNTKVDKRVEPKSCDKTHTCPPCPAPELLGGPSVFLFPPKPKDTLMISRTPEVTCVVVAVSHEDPEVKFNWYVDGVEVHNAKTKPREEQYNSTYRVVSVLTVLHQDWLNGKEYKCKVSNKALAAPIEKTISKAKGQPREPQVYTLPPSREEMTKNQVSLTCLVKGFYPCDIAVEWESNGQPENNYKTTPPVLDSDGSFFLYSKLTVDKSRWQQGNVFSCSVMHEALHNHYTQKSLSLSPGK
light: QSVLTQPPSVSGAPGQRVTISCTGSSSNIGAGYDVHWYQQLPGTAPKLLIYVNSNRPSGVPDRFSGSKSGTSASLAITGLQAEDEADYYCQSYDSSLSGWVFGGGTKLTVLGQPKAAPSVTLFPPSSEELQANKATLVCLISDFYPGAVTVAWKADSSPVKAGVETTTPSKQSNNKYAASSYLSLTPEQWKSHRSYSCQVTHEGSTVEKTVAPTECS
